In paper PMC10726135 one finds binding signal (log2 normalized intensity) data, which are given here for 93 sequences.

Some of the results follow. At the low end of the ranking the order means little. Measured with an extract: partners may take part in the binding.

For the test, the target named is T1, HNF4alpha2 (COS-7 nuclear extract) (UniProt P41235).
T1 sequence: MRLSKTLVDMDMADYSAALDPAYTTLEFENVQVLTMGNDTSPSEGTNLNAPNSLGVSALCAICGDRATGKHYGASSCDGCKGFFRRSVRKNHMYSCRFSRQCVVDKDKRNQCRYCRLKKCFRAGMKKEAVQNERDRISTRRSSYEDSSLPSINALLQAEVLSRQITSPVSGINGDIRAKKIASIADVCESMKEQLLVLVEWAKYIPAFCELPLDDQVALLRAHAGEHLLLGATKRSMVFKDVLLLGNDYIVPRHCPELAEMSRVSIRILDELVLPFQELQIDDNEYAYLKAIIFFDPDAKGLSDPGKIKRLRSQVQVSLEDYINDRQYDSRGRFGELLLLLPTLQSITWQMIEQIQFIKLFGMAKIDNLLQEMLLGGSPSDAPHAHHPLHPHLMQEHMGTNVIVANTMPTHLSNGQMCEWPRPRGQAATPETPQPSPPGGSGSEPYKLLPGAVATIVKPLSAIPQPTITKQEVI
Briefly: protein-binding microarray. Particulars: COS-7 nuclear extract on double-stranded Agilent 4x180k PBM; binding buffer, salt, pH and temperature not given; high values mean tight binding; double strand, one strand shown; sequences stand for … in …GCCTAGGGAGATTAGAGTATCGGTCGA
Regarding AACACTATCTTCTTTCAGTGTTGACCTTTG, the binding signal (log2 normalized intensity) amounted to 6.87. As for ATCCCCCACACCGAGATAGTAGAGATAGTG, the binding signal (log2 normalized intensity) is 2.59. Take GAGCGCAAATGATCAAAGGTCGGTTTTAGG: the binding signal (log2 normalized intensity) was 4.85. Turning to GTCAGTTGATAAACAGATAACTGGGGGCAA, the binding signal (log2 normalized intensity) came to 0.764.

Regarding TCACAAATGGAGTTTGGTTTAAAGTTCAAG, the binding signal (log2 normalized intensity) worked out at 2.34.

Take CATATTCCTTAGATAAAAAGCTTTTCTTCC: the binding signal (log2 normalized intensity) was -1.16. Next, TCTTTACACATCTGTTAGGAATGTCATGCA: 1.7; ACTTGTTATCACCTGCTGGAATGTTTCAAG: 1.05; GGGGGTGGAGAAGGAAGGGGAAGATGATAG: -1.03. As for GAGTTCAGTTATCATTTCTACAGGGTCAAG, the binding signal (log2 normalized intensity) came to 2.62. On to TCCGGCCTGAGGCAGGATCAGGGCCCCTTC, for which the binding signal (log2 normalized intensity) was -1.08. AAAGAGAAAGTAAGTGCACAGCCAGAACTG: the binding signal (log2 normalized intensity) is -1.15. As to GACCTCGGCGGAGCCTCCGGCCTGAGGCAG, the binding signal (log2 normalized intensity) is -1.29. With CTCAAGGAATCCTCCTAAGTAGCCAAGATT, the binding signal (log2 normalized intensity) was -0.94. The result for ACCAGGTAGGGCCCCCAGCCAGGCCCCAGG reads 0.198. For the sequence CTCTGCCTCGGCCACATTCCCCGACTCCTG, the binding signal (log2 normalized intensity) turned out to be 1.42. With ACAGATGGCCTCACTCGGTGTGAGTGGTCC, the binding signal (log2 normalized intensity) stood at 0.654. On to ACCTCGATCCCTGGCTAAGGTCCTGTTTGT, for which the binding signal (log2 normalized intensity) was 1.5. Next, GGATTTCTTGGCTTCTCTTGGACCTCAATG: 2.13; GGGCCAGCTGTACAAATAAAGGATGAAGGA: -1.01. Regarding ATGCCCAAATGAATAATCCCCTCCTGGACT, the binding signal (log2 normalized intensity) is 2.94. The result for AGTTCCGAGTTCCCTCGATTATTTCAGCCA reads -0.208; that for AGGGTACAAATTCCAGAGAGGGGCCTCCAT, 1.14.

As for TAGACATAGGTTATAAACTTGTTTGGGATT, the binding signal (log2 normalized intensity) amounted to 0.53. On to CAAGCCCAAAGCCCCCAGAGGTTCTAGCCC, for which the binding signal (log2 normalized intensity) worked out at 3.42. On to GATAAGCCAAGAATGTACTCTCCCCACCTG, for which the binding signal (log2 normalized intensity) amounted to 3.05.

ACCATCTCCAACATGACCACCTGGTTTAAG: the binding signal (log2 normalized intensity) amounted to 0.189.

As for GGAAGGAGTCATTATCTTTATTATCCCAGT, the binding signal (log2 normalized intensity) stood at 1.84. As to GTGCCTCTTTGGTGAATTTTATGTCTTCTT, the binding signal (log2 normalized intensity) was found to be 1.96. Take TGTCTCTGTAAATAAATGTCATTTAAGACG: the binding signal (log2 normalized intensity) was 0.744. Consider GACCTTCAGATGCAGTCCAGAAGGTCAGGA, for which the binding signal (log2 normalized intensity) is 3.44.

Turning to CGGAAGTTGCAGTGAGCTAAGATTGGACTC, the binding signal (log2 normalized intensity) stood at 4.36. Next, TGGGACTCATTTATGGAGGAATTTGGACTT: 4.74.

Regarding CTGCTGGACACCGAGGTCCTGGGGCGATGC, the binding signal (log2 normalized intensity) is -1.06. Take TTGAGCTGCTAAACCAACACCAGCAACCGC: the binding signal (log2 normalized intensity) was -1.01.

With ACTAAGTGCTTAGTATGTGCTAGGCATTTT, the binding signal (log2 normalized intensity) came to 1.27. Turning to TATTGAACCACCAGATAGAGCTTTTGAGGG, the binding signal (log2 normalized intensity) was -0.806. Next, CATCATAAACCCGATCCTTACTATTAGGTC: 0.213; GACCTGGAGCCAGGGCCTTTTCAAGGGAGT: -0.796. Take GATAATCTCAAAAGGGAATTTTGGACAAGG: the binding signal (log2 normalized intensity) is -0.0756. On to CTTCAAGTGTGACCCTGAACCTACAGCCCC, for which the binding signal (log2 normalized intensity) came to 2.32. Turning to GGAGCTGGTGGAGCAAAAAGGCCGTTCAAA, the binding signal (log2 normalized intensity) is -1.19.

For TGGCTTCTGACCTTTGGCATTGTGTTACGT, the binding signal (log2 normalized intensity) was determined as 4.74. Turning to TAACAGCGGCATTCCTGTCAAAATCTGATC, the binding signal (log2 normalized intensity) came out at 0.468. For the sequence CTTCTTCTGGAGCCTCAGTAAGTTTACTTC, the binding signal (log2 normalized intensity) was 0.33. On to AGATAAAAAGCTTTTCTTCCCCCCTCCCTC, for which the binding signal (log2 normalized intensity) is 5.26. On to CCAGGGGAGGTTATCTTGGGGCTAATGTCT, for which the binding signal (log2 normalized intensity) was 0.639. Next, TCACATTGGAGGAGGGGGCGGTTAAACATT: 0.28; ATCTCCAGATAAGACTTTGGACTTTGGACC: 11.6. In the case of CCATTTGCTGCTCTAGATGAGGGGGAAAGG, the binding signal (log2 normalized intensity) was -1.09. For GGCCTGGACTCCAAGCCCCAAAAACTTGGA, the binding signal (log2 normalized intensity) was -0.921. The result for GTTCAAACTTTATTTGATGATGAAGCAACA reads 0.841. For the sequence GTGCTGGGGACAAAAGCTGAGTCCCTGCTT, the binding signal (log2 normalized intensity) is -0.868. For the sequence CATCAAAGCATTTGGAGATTGCCACCTTGG, the binding signal (log2 normalized intensity) was -0.25.

On to TTATCTGATAAGTCCATACCTAGTCTTATC, for which the binding signal (log2 normalized intensity) came to 0.62.

On to CGCCCTTGGAATATCCTGCCTAACAGGAGT, for which the binding signal (log2 normalized intensity) is -1.21.

Take TGGTTTACTTATGTCTCCAGAAACCAACCT: the binding signal (log2 normalized intensity) was -0.0542. For GTTATCACAGGCTTGGAATGTTTCTGTATC, the binding signal (log2 normalized intensity) was found to be 0.785. TTGGGGTCCAAAGTCTTTGTTCCTAGCCAC: the binding signal (log2 normalized intensity) amounted to 3.51. For the sequence GAATCTGTTCCACCTGATCAAGCAACTGGC, the binding signal (log2 normalized intensity) was -1.09. The result for ATGGAGAAGATAAGCAGATCTTTAGAGACA reads -1.14; that for TTGTCAAAGATAGTTGTAGTTACAGCTCAT, -0.439. Next, TGAAAGTCCACTTGTCTGGCCTTCCTGGCC: 0.953; GTCCGACTGCACACCGTCCAGAGGCTCCAA: -1.21. Regarding CCTGGGCTGTATGTTCTAACCATAGGAGGC, the binding signal (log2 normalized intensity) was -1.1. As to AATGTGCCCAGATAAGAACTGCAAGGCTAG, the binding signal (log2 normalized intensity) was -0.646.

Take TCTTTCGCTGTAGAAAGTGGTTTCAAGGTG: the binding signal (log2 normalized intensity) stood at 1.51. As for CCTTTGGAAGGTGGGGGAGGAGACAGCTAC, the binding signal (log2 normalized intensity) is -1.15. Regarding ACTTCACTCAGTGGGGTGTCTGTGTGCCTC, the binding signal (log2 normalized intensity) stood at 2.16. The result for CATAAGCCTTGCTGAGGAATTTGGACTTCA reads 4.37.

ATCTCACATTCGTTAACATCAGCTGAGCAG: the binding signal (log2 normalized intensity) amounted to 0.269. As for TTTGTCAGCATCTTCACCGTAAAGCCACCC, the binding signal (log2 normalized intensity) is 0.778. Next, TGGGAGGCAAAGGTTGCAGTGAGCTGTGAT: 1.31; AGTGTTTTATGTGTATTTACTTATTGATAA: 1.66. On to AGGCAGATATACCAGATAAGGCAGTGGTTT, for which the binding signal (log2 normalized intensity) came to 0.391.

On to ACAGTCCCTCCTCCAGCATAGGCTAGGACC, for which the binding signal (log2 normalized intensity) was -0.676. On to TAAGCGCTGCCCTGGTAAGTTCCACTGCAT, for which the binding signal (log2 normalized intensity) was -1.1. The result for ACCCACCTACATTGATATTCCATATCAGCT reads -0.646; that for GAAATATCATTATCTTGATCAGAAAAGAAA, -0.572; that for TAGAATGTGCTGGATGTTTCCTTTGAACTC, 2.53. On to CCGCCCAGTGAAAACAGCCCTAACCAGGGG, for which the binding signal (log2 normalized intensity) is -1.22.

Regarding TCTTAAGCTAACATGTACAGTATTGCGTAA, the binding signal (log2 normalized intensity) is -0.692.

Turning to CCCGCAGTGAGGGACAAGGCTGTCCCCCAT, the binding signal (log2 normalized intensity) was found to be 1.6. Consider TCATTCATATCACCTAGGTGGAATCTTATA, for which the binding signal (log2 normalized intensity) was 1.42. On to GCCCCCCGCCCAGTGAAAACAGCCCTAACC, for which the binding signal (log2 normalized intensity) stood at 3.74. Consider CACCCCCATGCAAGTTCCCACAGAGCCCAC, for which the binding signal (log2 normalized intensity) worked out at 4.54. With AGGGAATAAAGAACTCTAAGCAGCGAAGCT, the binding signal (log2 normalized intensity) is -1.17.

As for GCAAATCTCTTGGTCATGGAGGGAACAAAA, the binding signal (log2 normalized intensity) is 0.66. Turning to AAAGGGGAAAAGGTCAAATACCAAAATGTG, the binding signal (log2 normalized intensity) came out at 1.8. For AGTACACACCTGCAACCTATTTCTTTTTGA, the binding signal (log2 normalized intensity) came to 0.113. On to CACAGCTGAATCCAAAGGTCAATGCCAGGA, for which the binding signal (log2 normalized intensity) came out at 4.04. As to GCTGGCTATCAGTTGAGATTTATTCCCAGG, the binding signal (log2 normalized intensity) is -1.15. GTACCTCCTTTCAGAACGTGTTTCCAGGCA: the binding signal (log2 normalized intensity) is 1.26.
